Molecular target: T1, human VEGF165 (human, UniProt P15692-4 27-191)
T1 construct: VEGF165 is the 165-residue isoform of VEGF-A
T1 sequence (looked up): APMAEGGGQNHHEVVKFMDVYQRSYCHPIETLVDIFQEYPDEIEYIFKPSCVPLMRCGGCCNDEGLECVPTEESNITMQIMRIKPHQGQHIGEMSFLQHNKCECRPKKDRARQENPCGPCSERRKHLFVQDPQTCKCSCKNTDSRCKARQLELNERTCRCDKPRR
Experiment: quantitative ELISA; serial concentrations of fusion protein mixed with 40 pM human VEGF165, detection with anti-human IgG Fc-HRP
Experimental: Binding assay of fusion proteins with VEGF were performed by quantitative ELISA kit using VEGF-Trap as control. Fusion proteins were mixed in serial concentrations with 40 pM human VEGF₁₆₅, and incubated at 37° C. for 1 hour. After washing, goat anti human IgG Fc-HRP was added and TMB visualization was performed. The EC₅₀ for the fusion protein SR1 and VEGF-Trap was calculated.

B1: fusion protein SR1 (Fc fusion)
chain: SDTGRPFVEMYSEIPEIIHMTEGRELVIPCRVTSPNITVTLKKFPLDTLIPDGKRIIWDSRKGFIISNATYKEIGLLTCEATVNGHLYKTNYLTHRQTNTIIDPFIASVSDQHGVVYITENKNKTVVIPCLGSISNLNVSLCARYPEKRFVPDGNRISWDSKKGFTIPSYMISYAGMVFCEAKINDESYQSIMYIVVVVGYRIYDVVLSPSHGIELSVGEKLVLNCTARTELNVGIDFNWEYPSSKHQHKKLVNRDLKTQSGSEMKKFLSTLTIDGVTRSDQGLYTCAASSGLMTKKNSTFVRVHEK[skipping human IgG1 Fc]
modifications: Glycosylated, Fc-mediated homodimer; one chain given.
notes: Expressed with the Flt1 signal peptide (NP-002010:1-26), which is not part of the secreted protein
EC50: 0.092 µg/mL

— US20100331250A1 (GENOR BIOPHARMA, published 2010)
